# In all, about 4,100 sequences were measured (“arbitrary fluorescence units”: median about 780, highest 2% from about 22,000 on). The list shows a part of the results.
# Molecular target: T1, ETS1 (UniProt P14921)
# T1 sequence: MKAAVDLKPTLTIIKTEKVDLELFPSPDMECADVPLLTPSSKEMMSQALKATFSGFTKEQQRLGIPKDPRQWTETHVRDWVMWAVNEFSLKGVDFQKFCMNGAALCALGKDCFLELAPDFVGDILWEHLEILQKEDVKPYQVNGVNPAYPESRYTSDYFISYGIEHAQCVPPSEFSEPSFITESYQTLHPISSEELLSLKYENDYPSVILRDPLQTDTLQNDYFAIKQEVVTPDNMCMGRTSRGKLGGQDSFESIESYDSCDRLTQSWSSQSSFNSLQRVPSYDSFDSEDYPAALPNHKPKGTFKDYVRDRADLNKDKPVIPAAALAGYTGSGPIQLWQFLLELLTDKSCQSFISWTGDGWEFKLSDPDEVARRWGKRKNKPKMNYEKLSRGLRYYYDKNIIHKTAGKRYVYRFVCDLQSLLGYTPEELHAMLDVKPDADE
# Assay: ETS1 binding intensity (PBM fluorescence), ETS1 alone (arbitrary fluorescence units); higher = stronger binding
# Conditions: ETS1 concentration 1 nM; RUNX1 concentration 0 nM
# How it was run: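 Full-length recombinant human ETS1 (1 nM, no RUNX1) was incubated, per standard PBM protocols, on double-stranded Agilent 4 × 180k arrays of 36-bp genomic probes whose RUNX1 partner site was mutated. Bound ETS1 was detected with anti-ETS1 antibody (Cell Signaling Technology 14069) and Alexa488-conjugated secondary antibody, then scanned on a GenePix 4400A. Binding level is spot fluorescence intensity, summarised over replicate spots (four printed per sequence) and not normalised.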
row,Sequence,ETS1 binding intensity
1,CTCCCAGCCGGGCGGAACCGAGACCGATTCGTCCCC,372
2,GCTTCGTTTCCCGCCGGGGCTCGCCGCGCCCCCCTA,1160
3,TGTTAGGATGTAAGACCGAAAGAGACACACCCTCAA,393
4,CTCAATTCAGACCAGCAACACGGCCGGAAGCAACTC,1920
5,CTCGTCAACGACACGTCACCCCGCCTACTTCCCGAC,383
6,ACAGGAAACTAAAATAAGAACAGAACACCAAGACAG,509
7,CCGGGCGCCACTTCCGGTCCCCGTGGACACGTGACC,53800
8,GAAGGCGGTTCCGGTTCGCGGCGATTCCCGGGTTTT,3850
9,TGTGTAATCCCCACGACAACCTAGGAAGTGGGAAAA,410
10,CTCCCACTGGGGTTGCCCCCTTCCTCTCAGTGGCAC,434
11,CTATTGTCGTATTAAAAAGAGAGGCTGGGGGAAGTG,609
12,TTCTGTGTGATTACTTTAAATACCAAAAGGAAATGT,608
13,TATCACGTTTCCTGCTGCTGCACCTCGACCTCAGCT,5680
14,CCCACTCCACTTCCGCCACCGCCGAATCCGCCGCTG,11700
15,CAGAGGAAGCCCACCCCATAAAAGAACGACAGATAA,471
16,CTCCTTTGCCTGCAGCGGCTGGTCCGGTTTACATCA,353
17,GGACCTGCACCCTGGTCCCGCGGGCCGGACGGAGGT,343
18,AGGGGAGGCCTGTCGTTCTCACTTCCTGGCAGAGCT,2020
19,GCAGCGCCTTAGAGCGCTCGGCCATCCTGACTGCTT,262
20,CCAAACGCTTCCCGGTACGTGTTGCTGCGAGAACCC,931
21,TAAAACACCAGGAAACTCTGTGCTGAGTGGGAGGTG,483
22,ATTTGTCACCAAAGCACAGAGAGGAAATGATTGTAA,640
23,GTGCAGCGCCCGAGGCCGAGAGAGGAAGTAGATCCC,738

row,Sequence,ETS1 binding intensity
1,TTTACTGAGAGGAAGTGGTTCTTGTAGGTGAAGGTC,1510
2,TGCAACGACAGGGGCGAAGAAGTCAGGAAATGCTGC,432
3,ACTTTAGCGTACGGTAGATTTCCTAGATAACCTGAG,475
4,TGTGATAAGGATGTTCGTGTGCCTTGTAGTCAGGTG,398
5,CGAAGTCAGCGCGGCCAGAGAAAGGATGTGATATAG,397
6,GAATTCGGGGGTGGGCACCCTATTCTCACTTCCCCT,632
7,TCGCCAGCGGCAAACAGGCCACATCCCCAGCCCATC,349
8,GTACGCTGGGCCGCTGTCCCTGCCGGGAAGTGTAGT,334
9,GCCATCCAGGAAGTACAGACTCCCTGACAGCACTGA,2850
10,CCTGCTTGCATGTAGTTCAGACATCCTGAGGTGGTA,475
11,GGCAACCTGAGCTTCCGTGTAAAACTACAGTGTGAC,938
12,CGGAGGCGGCCGGAAGTAGCGCTGCTGTTGGCAGCT,12300
13,CACCCTGCCACTTCCCTAAACTCCCCGCGCAGGCCG,1050
14,TGTCATCCCGGAAACTGATAACAAGACCTCGAGTCA,4740
15,CCACCACCTACAGCAGCTGCAAACATCCTCCAGACC,497
16,AAAGGCGGAAGGGGGGCAGGGAACTCACAAAACAGA,1470
17,AAAGTCAAAATCACAGGAACAGGAAACTGTTCACTG,1210
18,AACAGATCCTTCCTGGCCCCCACTAGCGACAGGTTT,1610
19,TATTCAGGCTTCCGGGTGATGTTTATGGCCACCCGG,5730
20,GTTAAGCTGCGCTCAGACCTAAGGGAGGATGTGGCT,328
21,AGCTGGTTAGCCGGATAGAATGTGCGTGCCGAGGGC,355
22,ACCTAATGGCCCCAATGGAGAACTGCAGGATGTAGA,440
23,CCGGCGGCCTGCAGTGCATGCCGGGAAACGTAGTTC,411
